Over roughly 33,000 sequences, “E-score (-0.5 to 0.5)” has its median near -0.053; the highest 2% begin near 0.37. This is one part of the list.
biological target: Hap1 (UniProt P0CE41); assay: PBM E-score (8-mer binding enrichment) (E-score (-0.5 to 0.5)); higher = stronger / more preferred TF binding; most listed sequences are background and not binding sites; conditions: protein concentration: 200 nM; construct: GST-DNA-binding domain
Procedure, shortened: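 Using PURExpress in vitro transcription/translation, GST-tagged yeast transcription factors were made in full-length or DNA-binding-domain form. These were applied at about 100-200 nM to double-stranded universal all-10-mer Agilent arrays, and bound protein was detected with fluorescent anti-GST. Scans were normalised with masliner before the Universal PBM Analysis Suite assigned E-scores to ungapped eight-base words pooled with their reverse complements.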

Chain of UniProt P0CE41 (P0CE41 whole entry, the tested form may be a part): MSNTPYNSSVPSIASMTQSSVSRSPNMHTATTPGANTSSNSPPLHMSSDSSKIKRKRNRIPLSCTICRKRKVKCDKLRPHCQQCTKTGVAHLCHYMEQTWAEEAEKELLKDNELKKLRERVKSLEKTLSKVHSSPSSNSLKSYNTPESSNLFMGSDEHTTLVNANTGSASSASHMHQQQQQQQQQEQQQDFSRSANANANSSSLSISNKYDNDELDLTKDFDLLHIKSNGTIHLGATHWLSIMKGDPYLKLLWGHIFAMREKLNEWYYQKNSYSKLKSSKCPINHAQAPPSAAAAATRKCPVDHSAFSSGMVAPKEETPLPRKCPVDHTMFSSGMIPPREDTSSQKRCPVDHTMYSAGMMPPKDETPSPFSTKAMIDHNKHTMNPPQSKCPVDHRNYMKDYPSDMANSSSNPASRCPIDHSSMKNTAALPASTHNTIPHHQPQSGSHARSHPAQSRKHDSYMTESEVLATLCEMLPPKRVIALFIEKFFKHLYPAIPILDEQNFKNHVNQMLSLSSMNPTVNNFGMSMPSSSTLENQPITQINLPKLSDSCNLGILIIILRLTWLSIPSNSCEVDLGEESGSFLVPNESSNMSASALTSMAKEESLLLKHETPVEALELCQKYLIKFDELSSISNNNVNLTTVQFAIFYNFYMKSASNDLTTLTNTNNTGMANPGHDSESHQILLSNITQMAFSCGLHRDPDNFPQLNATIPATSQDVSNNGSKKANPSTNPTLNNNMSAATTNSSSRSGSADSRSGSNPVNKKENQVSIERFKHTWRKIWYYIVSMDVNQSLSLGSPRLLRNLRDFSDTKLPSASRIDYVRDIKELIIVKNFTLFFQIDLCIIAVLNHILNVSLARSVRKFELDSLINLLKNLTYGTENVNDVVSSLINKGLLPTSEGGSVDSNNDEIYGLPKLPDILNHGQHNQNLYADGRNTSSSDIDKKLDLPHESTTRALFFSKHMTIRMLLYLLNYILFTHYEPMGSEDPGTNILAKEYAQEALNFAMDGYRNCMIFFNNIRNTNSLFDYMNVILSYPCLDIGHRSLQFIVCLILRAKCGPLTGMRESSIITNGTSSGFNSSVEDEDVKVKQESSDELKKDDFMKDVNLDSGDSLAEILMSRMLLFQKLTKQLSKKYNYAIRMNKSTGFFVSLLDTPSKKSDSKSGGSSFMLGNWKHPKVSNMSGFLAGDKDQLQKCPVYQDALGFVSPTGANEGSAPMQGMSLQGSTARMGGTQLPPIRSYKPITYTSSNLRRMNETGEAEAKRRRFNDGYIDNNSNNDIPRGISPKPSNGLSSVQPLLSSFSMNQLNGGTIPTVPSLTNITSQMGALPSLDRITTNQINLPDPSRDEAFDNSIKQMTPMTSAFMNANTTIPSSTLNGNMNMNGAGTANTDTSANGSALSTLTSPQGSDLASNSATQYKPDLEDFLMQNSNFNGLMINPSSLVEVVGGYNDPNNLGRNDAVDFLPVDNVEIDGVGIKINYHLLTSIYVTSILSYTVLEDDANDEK

Row | Sequence | PBM E-score
1 | GGACCCAC | 0.085
2 | GGCACAAA | 0.141
3 | GACAAAGA | -0.0849
4 | CAGTGTAA | -0.0473
5 | AGTCTCGA | -0.17
6 | CTTCTCCC | -0.102
7 | GTCCAGCA | -0.333
8 | CTGATACC | -0.23
9 | AGAAATCG | 0.0927
10 | GACTCATA | -0.107
11 | CGGCGCTC | 0.23
12 | TCGCGTAA | 0.178
13 | ATAATACG | 0.145
14 | AACGGAAA | 0.385
15 | CAGGCCCG | 0.125
16 | CACTCACG | -0.0945
17 | ACATACTG | -0.0905
18 | CGGTGCTC | 0.161
19 | CGCGAAAA | 0.247
20 | CCTAATCG | 0.0853
21 | CTTTTGAA | -0.118
22 | CTTGGAGA | -0.0528

Row | Sequence | PBM E-score
23 | AAGTCTCA | -0.234
24 | AAAGATAG | -0.134
25 | CTAATGAA | -0.0291
26 | AACGCATC | -0.0995
27 | AGTTAAGC | 0.0922
28 | ACTAACAC | -0.057
29 | CGGGCAGC | 0.266
30 | CACCCGCG | 0.175
31 | AGCCGTTA | 0.297
32 | GCGGGTCA | 0.0979
33 | CTAGTCAG | -0.4
34 | GCCGCGGA | 0.329
35 | GAGACTAA | 0.087
36 | CAGAGTCA | -0.168
37 | TATTCCCA | 0.114
38 | AGATGGTC | -0.051
39 | CGGATCCG | 0.401
40 | GGCCCTAA | 0.178
41 | TATAGGGA | -0.0339
42 | CCCCGTTA | 0.203
43 | AACGCTCT | -0.183
44 | AGGAGGTC | -0.153

Row | Sequence | PBM E-score
45 | CAGCCCAG | -0.15
46 | CGATCTTC | 0.162
47 | AACTACGG | 0.193
48 | ACATACCT | -0.197
49 | GCGATTCC | 0.211
50 | GTACTGAC | -0.119
51 | CTTACAAG | -0.285
52 | AAATTTGA | -0.0325
53 | ACCGACCC | 0.265
54 | GAGCCCGA | 0.137
55 | ACCGCAGT | 0.106
56 | AAAAGGAC | -0.193
57 | AACCACTG | -0.0718
58 | AAATGCCG | 0.359
59 | TCGGAGCA | 0.367
60 | CCGAACCA | 0.268
61 | AGCCCGCA | 0.1
62 | ACCTGAGA | -0.199
63 | CCCTCTAC | -0.247
64 | AATGATTC | 0.00202
65 | CAAACGGC | 0.0742
66 | ATTGAAGG | -0.226

Row | Sequence | PBM E-score
67 | CCTGTGAC | -0.277
68 | AAGCTGAC | -0.0985
69 | CCGGCATC | 0.203
70 | GAGATTGC | 0.0468
71 | AGCGTAGC | -0.0143
72 | AATAGCGG | 0.178
73 | GAGTATTA | -0.121
74 | CCTTCGTC | -0.164
75 | CTCCGCCC | 0.245
76 | GCAGAGTA | -0.163
77 | ACTCCCCA | -0.173
78 | AGTGTCTA | -0.159
79 | CCGCCCCA | 0.15
80 | CGTAATCA | -0.0549
81 | CTTACTCC | 0.129
82 | ATGGGTAA | 0.00081
83 | GTGGCAAC | -0.151
84 | CTATAGTC | -0.191
85 | CAACACCG | 0.13
86 | ACTTACAA | -0.212
87 | AAGAGTAA | -0.136
88 | ATTCCTCG | 0.131

Row | Sequence | PBM E-score
89 | AACCGTAT | -0.114
90 | AGGCGACT | -0.0475
91 | CCTAAGGA | -0.0581
92 | CCCTATGC | -0.164
93 | AGAAAGCG | -0.22
94 | ACTTCGGA | 0.403
95 | AACAAGTC | -0.122
96 | AAGACATA | -0.22
97 | CTCGGGGA | 0.36
98 | CTCCAGAA | -0.216
99 | ACATCTAT | 0.0372
100 | GGACATAA | 0.337
101 | AGCACCCC | -0.195
102 | CGCGGGAA | 0.312
103 | GTGAGTTA | -0.157
104 | AGTGATGA | -0.14
105 | CTCGCAAG | -0.135
106 | AGTATTAA | -0.0546
107 | ATGGGGCA | -0.0948
108 | CAACTGAA | -0.275
109 | GGAGATCA | 0.162
110 | ACCCAGGC | 0.00897
